About 14,000 (4.5%) of roughly 310,000 compounds showed an effect of 50% or more. The effect is printed as a negative number. The list shows a part of the results.
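Also: peak tail current of the secondary pulse compared with the same well before compound.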

Chain of human ether-à-go-go-related gene (hERG) potassium channel (Q12809 whole entry, looked up): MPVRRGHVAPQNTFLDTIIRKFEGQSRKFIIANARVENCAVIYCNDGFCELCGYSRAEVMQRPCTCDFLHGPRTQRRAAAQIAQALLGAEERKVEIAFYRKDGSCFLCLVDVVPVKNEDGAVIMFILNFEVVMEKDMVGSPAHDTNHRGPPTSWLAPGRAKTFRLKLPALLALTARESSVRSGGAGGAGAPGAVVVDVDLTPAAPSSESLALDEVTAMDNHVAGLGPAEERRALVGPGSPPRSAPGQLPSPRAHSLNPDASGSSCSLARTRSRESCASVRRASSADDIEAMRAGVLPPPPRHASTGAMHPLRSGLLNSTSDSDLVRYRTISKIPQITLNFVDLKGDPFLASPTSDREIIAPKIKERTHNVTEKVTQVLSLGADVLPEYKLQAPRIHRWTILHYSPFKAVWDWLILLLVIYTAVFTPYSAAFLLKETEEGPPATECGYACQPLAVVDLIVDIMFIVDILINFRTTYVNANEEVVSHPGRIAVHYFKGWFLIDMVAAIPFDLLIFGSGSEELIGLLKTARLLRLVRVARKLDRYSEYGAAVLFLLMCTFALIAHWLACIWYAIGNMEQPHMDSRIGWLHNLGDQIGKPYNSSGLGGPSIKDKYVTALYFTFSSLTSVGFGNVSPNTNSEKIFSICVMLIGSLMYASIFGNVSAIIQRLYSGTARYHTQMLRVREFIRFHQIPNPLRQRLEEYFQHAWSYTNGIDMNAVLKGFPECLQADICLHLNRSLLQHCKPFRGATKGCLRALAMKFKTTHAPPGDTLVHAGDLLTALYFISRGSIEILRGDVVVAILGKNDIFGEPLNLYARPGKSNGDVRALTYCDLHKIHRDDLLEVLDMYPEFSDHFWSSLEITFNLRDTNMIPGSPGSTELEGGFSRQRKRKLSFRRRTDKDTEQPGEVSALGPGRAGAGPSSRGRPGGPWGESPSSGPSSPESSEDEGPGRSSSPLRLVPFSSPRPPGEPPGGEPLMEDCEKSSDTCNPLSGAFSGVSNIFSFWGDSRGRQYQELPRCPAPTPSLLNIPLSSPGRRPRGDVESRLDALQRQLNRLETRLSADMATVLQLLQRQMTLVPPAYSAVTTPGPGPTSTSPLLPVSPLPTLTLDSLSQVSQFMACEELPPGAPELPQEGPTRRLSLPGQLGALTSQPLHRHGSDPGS

The test has as its target human ether-à-go-go-related gene (hERG) potassium channel (human, UniProt Q12809). The test can be described thus: primary screen, population patch clamp on CHO cells stably expressing hERG.
As to `CC1CCN(c2nc(-c3ccccc3)c(C#N)c(=O)[nH]2)CC1`, the “hERG current change (%, negative = inhibition) at 10uM” value was found to be 23.9%.
The figure for `CC(=O)c1ccc(NC(=O)CSCCO)cc1` is 10.5%.
As for `O=c1c(C=NCCCn2ccnc2)c(-c2ccccc2)[nH]n1-c1nc2ccccc2s1`, the “hERG current change (%, negative = inhibition) at 10uM” value was -71.4%.
Next, `Cc1ccc(C)c(S(=O)(=O)N2CCN(C(=O)c3sccc3C)CC2)c1`: -30.7%.
On to `COCCn1nnnc1CN1CCC(NC(=O)c2ccc(Br)cc2)CC1`, for which the “hERG current change (%, negative = inhibition) at 10uM” value is -39%.
Next, `CCOC(=O)c1c(C)n(OCc2ccccc2)c2ccc3c(no[n+]3[O-])c12`: 4.39%; `COc1ccc(C2=NCC(=O)N(CC(=O)NCc3ccco3)c3sc4c(c32)CCCC4)cc1OC`: -17.3%.
Next, `S=c1nccc(-c2ccc3c(c2)CCO3)[nH]1`: -9.24%; `O=C(NCCCc1ccccc1)C(=O)NCC1OCCN1S(=O)(=O)c1ccc(F)cc1` (stereo not drawn): 7.26%; `COc1cc(S(=O)(=O)NCc2ccccc2)ccc1-n1cnnn1`: -11%.
Next, `CCOC(=O)c1[nH]cnc1C(=O)Nc1ccc(C)cc1`: 11.6%.
Regarding `COc1ccc(/C(C)=N/Nc2nc3ccccc3n3cnnc23)cc1OC`, the “hERG current change (%, negative = inhibition) at 10uM” value was -19.4%.
The figure for `CCN(CC)S(=O)(=O)c1ccc(C(=O)NCc2ccc3c(c2)OCO3)cc1` is 2.77%; for `O=C1CC(N2CCN(S(=O)(=O)c3cccc(C(F)(F)F)c3)CC2)C(=O)N1Cc1ccccc1` (stereo not drawn) it is -21.2%; for `CCN(CC)CCn1c2c(c(SCC(=O)NCc3ccccc3)nc1=O)CCCC2` it is -31.4%.
Next, `CCn1c(O)c(C=Nc2ccc(N3CCOCC3)c(Br)c2)c(=O)n(CC)c1=S`: 2.18%.
Next, `COC(=O)CC(=O)N1CCN(c2ccc(Cl)c(Cl)c2)CC1`: -8.16%; `CC1CCC(NC(=O)C2CCN(S(=O)(=O)c3cccc4nonc34)CC2)CC1` (stereo not drawn): 0.619%.
For `COc1cc(C)c(CNc2cccc(C)c2)cc1C`, the “hERG current change (%, negative = inhibition) at 10uM” value stood at 2.74%.
The figure for `CCN(CC)S(=O)(=O)c1ccc(Cl)c(C(=O)OC2CC(C)OC2=O)c1` (stereo not drawn) is 10.6%; for `CNc1cc(CSC)nc(SCc2ccc(Cl)c(Cl)c2)n1` it is 0.667%; for `C/C(=N\NC(=O)c1c(C)nc2ccccn12)c1ccccc1F` it is 1.58%.
Next, `CCCOc1ccc(C2C(C(=O)OC)=C(C)N=C3SCCC(=O)N32)cc1OCC` (stereo not drawn): -9.52%; `Cc1cc(C)c(NC(=O)c2ccc(S(=O)(=O)N(C)C)cc2)c(C)n1`: 7.04%.

Source of the values: paper PMC4336329 (PLoS ONE, 2015).
